From PubChem BioAssay AID485313 (National Center for Advancing Translational Sciences (NCATS), 2010)
Hit rate of the full screen: of about 320,000 compounds, about 7,600 (2.4%) were called active. The inconclusive results got no clear call from the source; some entries with a clear call stand among them for comparison. Calls follow the shape of the dose curve; as a rule, active = well fitted activation curve with a large enough effect; inconclusive = small, poorly fitted or top-dose-only effect; inactive = no such curve, though single readings can be large or run the other way. No potency is given beside an inconclusive call; the fits are too rough.

Assay: qHTS Assay for NPC1 Promoter Activators; also: nearly all actives have a fitted effect of over 60% in size;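 as to activation: reporter is driven by a mutant NPC1 promoter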
Conditions: Huh7 NPC1 promoter luciferase reporter, 24 h; series mostly up to 9.22 µM
In short: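 Stable NPC1-promoter luciferase Huh7 line; cpd (DMSO) 24 h, 37 °C, 5% CO2; Amplite luciferase reagent 10 min RT; luminescence readout. qHTS format.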
Potency is read from the fitted curve at half-maximal effect; tags tell the direction and shape of the fitted curve.

Structure (SMILES) | Potency
Cn1c(SCc2ccccc2Cl)nnc1-c1cnccn1 | inconclusive [activator, single point]
O=C(Nc1cccc2ccccc12)C(=O)C1C(=O)Nc2ccccc21 (stereo unspecified) | inconclusive [activator, single point]
O=C1C(=C2SCCCS2)CC/C1=C\c1ccc(F)cc1 | inconclusive [activator, partial curve]
CC(=O)Nc1ccccc1OCc1nnc(-c2ccccc2Cl)o1 | inactive
COc1ccc(NC(=O)/C=C/c2ccc(F)cc2)cn1 | inconclusive [activator, single point]
C=CCn1cnc2c(nnn2-c2ccc(C)c(C)c2)c1=O | inconclusive [activator, single point]
CN(C)/C=C/C(=O)c1cnc(-c2ccccc2)s1 | active: 2 µM
O=C(CCSCc1ccc(Cl)cc1)NCc1cccs1 | inactive
Cc1nn(-c2nc3ccccc3s2)c(N)c1-c1ccc(Cl)cc1 | inconclusive [activator, single point]
CC(C)C(=O)NNC(=O)CSc1nnc(-c2ccccc2)c(-c2ccccc2)n1 | inconclusive [activator, single point]
Cc1ccc(NC(=O)c2oc3ccccc3c2C)c([N+](=O)[O-])c1 | inconclusive [activator, single point]
c1ccc(-c2cc3n(c2)CCc2ccccc2-3)cc1 | active: 3.55 µM
O=[N+]([O-])c1ccc(O)c(/C=N/Nc2ccccc2Cl)c1 | active: 1.41 µM
COc1ccc(-c2nc3ccccn3c2NCc2ccc3c(c2)OCO3)cc1 | inconclusive [activator, partial curve]
O=C(/C=C/Nc1cccc(C(F)(F)F)c1)c1ccc(Oc2ncccn2)cc1 | inconclusive [activator, partial curve]
Cc1cc(NC(=O)/C=C/c2ccccc2Cl)no1 | active: 2.82 µM
COc1ccc(NC(=S)NC(=O)c2ccc(Br)o2)cc1 | inconclusive [activator, single point]
O=S(=O)(c1cccc2nsnc12)N1CCc2ccccc21 | inconclusive [activator, single point]
CC(C)c1ccccc1OCC(=O)Nc1cc(S(=O)(=O)N2CCOCC2)ccc1N1CCCC1 | inactive
CC(=O)c1c(C)[nH]c(C(=O)OCc2ccccc2)c1C | inconclusive [activator, partial curve]
CSc1nc2ccc(NC(=O)NC(=O)c3c(F)cccc3F)cc2s1 | inconclusive [activator, partial curve]
Cc1cc(CN2CCCC(C(=O)Nc3ccc(-c4nc5ccccc5[nH]4)cc3)C2)n[nH]1 (stereo unspecified) | inconclusive [activator, partial curve]
COc1ccc(NC(=O)CN2C(=O)COc3ccc(S(=O)(=O)N4CCCCC4)cc32)c(OC)c1 | inconclusive [activator, single point]
COc1cccc(NC(=O)c2ccc3c(c2)OCO3)c1 | active: 0.501 µM
O=C(N/N=C/c1cn(-c2ccccc2)nc1-c1cc2ccccc2o1)c1cccnc1 | inconclusive [activator, single point]
Cc1noc(C(=O)Nc2ccc3c(c2)OCO3)c1Cl | inconclusive [activator, single point]

Structure (SMILES) | Potency
COc1cccc(NC(=O)COC(=O)C2CCN(S(=O)(=O)c3cccs3)CC2)c1 | inactive
O=C(O)c1ccccc1C(=O)Nc1ccc(-n2ccc(C(F)(F)F)n2)cc1 | inactive
Cc1csc2ncc(C(=O)NCCc3ccccc3)c(=O)n12 | inconclusive [activator, partial curve]
CN(C)c1ccc(Nc2ncnc3ccc(Br)cc23)cc1 | inconclusive [activator, partial curve]
Cc1cc(C(=O)CSc2nc3ccccc3o2)c(C)n1C1CC1 | active: 2.24 µM
NC(=O)CSc1nnc(NC(=O)c2ccc3ccccc3c2)s1 | active: 3.16 µM
Fc1cccc(Cc2noc(CN3CCCCC3c3ccccn3)n2)c1 (stereo unspecified) | inconclusive [activator, single point]
Fc1ccccc1OCC1CCCN(Cc2nc(CC3CC3)no2)C1 (stereo unspecified) | inactive
COc1ccc(CCn2nc(C)c([N+](=O)[O-])c2C)cc1 | active: 3.16 µM
O=C(N/N=C/c1ccc([N+](=O)[O-])cc1)c1cc2ccccc2o1 | inactive
COC(=O)c1cc(-c2cc(OC)ccc2OC)nc2c1c(=O)n(C)c(=O)n2Cc1ccccc1 | inactive
Brc1ccc(-c2nc(-c3ccccn3)no2)o1 | active: 0.562 µM
CCOC(=O)c1ccc(-c2ccc(C=O)o2)cc1 | inconclusive [activator, partial curve]
CC(=O)Nc1ccc(/C=C/c2noc(-c3ccccc3O)n2)cc1 | inconclusive [activator, single point]
O=C(NC1CC1)c1c(O)c2ccccc2[nH]c1=O | inconclusive [activator, single point]
Cc1onc(-c2ccccc2Cl)c1C(=O)OCC(=O)c1ccc2c(c1)OCCO2 | inactive
Cn1c2ccccc2c(=O)c2ccc(C#CC3(O)CCCCC3)cc21 | active: 0.316 µM
Cc1ccc(C(=O)Nc2ccc3c(c2)OCO3)cc1S(=O)(=O)N1CCCC1 | inconclusive [activator, partial curve]
CC(C)(C)c1ccc(C(=O)NCC(=O)N/N=C/c2ccccc2OCC(=O)O)cc1 | inactive
O=[N+]([O-])c1ccccc1-c1ccc(C(=S)N2CCCC2)o1 | inconclusive [activator, partial curve]
Cc1ccc(NC(=O)Nc2ccc(F)cc2)nc1 | inconclusive [activator, partial curve]
COc1ccc(-n2cnc3cc(NCc4cccs4)ccc32)cc1 | inconclusive [activator, single point]
COc1ccc(-c2nc3ccccc3o2)cc1OC | inconclusive [activator, single point]
CCOC(=O)C1CCCN(C(=O)CC(C)c2ccccc2)C1 (stereo unspecified) | active: 2.82 µM
O=[N+]([O-])c1cccn2cc(-c3ccc(Br)cc3)nc12 | inconclusive [activator, partial curve]
COc1ccc(S(=O)(=O)Nc2ncccc2C)c2ccccc12 | inactive

Structure (SMILES) | Potency
COc1ccc(C(=O)N2CCN(S(=O)(=O)c3ccc(Br)cc3)CC2)cc1 | inactive
CC(C)C[C@H]1CN=C(Nc2ccccc2)N1CC1CCC(C)CC1 (stereo partly specified) | inactive
COCCNc1nnc(SC(C)C(=O)Nc2ccc(-c3nc4ccc(C)cc4s3)cc2)s1 (stereo unspecified) | active: 1.58 µM
c1ccc(CNc2ccc3ccccc3n2)nc1 | active: 2.24 µM
COC(=O)c1ccc(/C=N/NC(=O)c2cccc(F)c2)cc1 | active: 2 µM
O=C(NNC(=O)c1cc2ccccc2oc1=O)c1ccccc1 | inconclusive [activator, partial curve]
Cc1cc(C)c2nc3s/c(=C/c4ccccc4)c(=O)n3c2c1 | inconclusive [activator, full curve]
Cn1c(Cl)c(C(=O)Nc2ccccc2)c2ccccc21 | inconclusive [activator, single point]
CN(C)c1ccc(/C=N/NC(=O)COc2ccccc2)cc1 | inactive
CC(C)C(=O)N1CCN(c2ccc(NC(=S)NC(=O)c3cc4ccccc4o3)cc2)CC1 | inconclusive [activator, partial curve]
Cc1ccc(C(=O)c2ncc[nH]2)cc1 | inconclusive [activator, single point]
Cc1ccc(C(=O)COc2ccccc2N2C(=O)c3ccccc3C2=O)cc1 | inconclusive [activator, partial curve]
COc1ccc(/C=C2/SC(=O)NC2=O)cc1 | inconclusive [activator, partial curve]
CC1CN(C(=O)c2ccncc2)CC(C)O1 (stereo unspecified) | inconclusive [activator, partial curve]
COc1ccc(-c2nc3cc(NC(=S)NC(=O)Cc4ccccc4)ccc3o2)cc1 | inconclusive [activator, partial curve]
Cc1ccc(Nc2nc(N3CCOCC3)nc(N3CCOCC3)n2)cc1C | inactive
COc1ccc(-c2noc(CSc3ccccc3)n2)cc1OC | inconclusive [activator, single point]
CC[C@@]12C(=O)N(c3cccc(Br)c3)C(=O)N1[C@H](c1cccc(C)c1)[C@@H]1C(=O)N(Cc3ccccc3)C(=O)[C@@H]12 | inactive
Cc1occc1C(=O)O/N=C(\N)c1ccccc1 | active: 0.447 µM
CN(CCOc1ccccc1)C(=O)C1CCC(=O)N(CCc2ccc(Cl)cc2)C1 (stereo unspecified) | inconclusive [activator, partial curve]
COc1ccc(CNC(=O)NC2CCCCC2)cc1 | inconclusive [activator, partial curve]
Cc1ccnc2nc(NC(=O)c3ccco3)nn12 | inconclusive [activator, single point]
Cc1c(C(=O)Nc2cc(F)cc(F)c2)cnn1-c1ccccc1 | active: 1.26 µM
CCOc1ccc(C(=O)Nc2nnc(C(C)C)s2)cc1OCC | inconclusive [activator, partial curve]
